#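 Briefly, cells in 96-well plates were exposed to five compound concentrations for 48 h, and endpoints were estimated by linear interpolation. Abbreviation: GI50, concentration required for 50% inhibition of growth. TGI: total growth inhibition.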
# Test system: NCI-H322M lung
# Assay: NCI-60 cell line screen, 48 h
SMILES,GI50 [µM],TGI [µM]
Cc1cc2nc3c4ccccc4n(CCNCCN(C)C)c3nc2cc1C,7.46,20.5
O=C(Nc1cccc(C(F)(F)F)c1)c1cncc(C#Cc2cnc3ccc(N4CCOCC4)nn23)c1,5.82,45.8
Cc1ccc(C(SCCNCc2cc(N(C)C)ccn2)(c2ccccc2)c2ccccc2)cc1,3.56,15.1

# Reference: PubChem BioAssay (NCI)
